In PMC9759531, “USP5-Beclin 1 axis overrides p53-dependent senescence and drives Kras-induced tumorigenicity” (Nature Communications, 2022):
These are yes or no findings as the source states them, for the method shown. For some of these results: In cells and extracts the contact can be indirect. Some results given as binding are weak or reduced against the parent protein; the word gives no strength. Blank lines part the entries; values can stand above or below the substance they belong to.

Amino acid sequences for entries named in this document (tags omitted). A change or cut given only in a name is not applied to a line headed by its entry.
UniProt P45974: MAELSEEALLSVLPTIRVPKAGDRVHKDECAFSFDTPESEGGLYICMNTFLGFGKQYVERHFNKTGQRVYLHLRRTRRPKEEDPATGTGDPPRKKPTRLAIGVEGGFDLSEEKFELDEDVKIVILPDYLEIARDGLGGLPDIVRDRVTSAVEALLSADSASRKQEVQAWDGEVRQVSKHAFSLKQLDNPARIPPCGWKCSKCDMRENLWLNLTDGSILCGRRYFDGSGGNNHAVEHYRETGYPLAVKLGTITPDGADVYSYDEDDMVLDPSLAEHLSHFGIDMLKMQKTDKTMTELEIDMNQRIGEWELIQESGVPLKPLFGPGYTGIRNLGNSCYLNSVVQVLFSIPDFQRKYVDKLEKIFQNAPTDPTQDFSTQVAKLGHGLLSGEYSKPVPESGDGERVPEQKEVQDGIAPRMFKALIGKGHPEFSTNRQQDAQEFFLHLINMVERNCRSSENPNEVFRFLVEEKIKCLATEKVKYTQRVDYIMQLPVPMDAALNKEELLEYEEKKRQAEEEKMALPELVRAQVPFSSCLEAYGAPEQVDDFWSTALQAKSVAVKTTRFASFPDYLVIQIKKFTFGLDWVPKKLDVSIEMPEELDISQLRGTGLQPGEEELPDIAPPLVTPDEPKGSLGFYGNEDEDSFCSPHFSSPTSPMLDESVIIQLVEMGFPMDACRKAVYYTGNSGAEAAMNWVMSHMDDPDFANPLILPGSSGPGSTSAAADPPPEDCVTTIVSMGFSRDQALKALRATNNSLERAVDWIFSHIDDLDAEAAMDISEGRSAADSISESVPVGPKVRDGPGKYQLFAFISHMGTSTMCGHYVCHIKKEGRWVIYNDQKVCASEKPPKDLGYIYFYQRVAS
UniProt Q14457: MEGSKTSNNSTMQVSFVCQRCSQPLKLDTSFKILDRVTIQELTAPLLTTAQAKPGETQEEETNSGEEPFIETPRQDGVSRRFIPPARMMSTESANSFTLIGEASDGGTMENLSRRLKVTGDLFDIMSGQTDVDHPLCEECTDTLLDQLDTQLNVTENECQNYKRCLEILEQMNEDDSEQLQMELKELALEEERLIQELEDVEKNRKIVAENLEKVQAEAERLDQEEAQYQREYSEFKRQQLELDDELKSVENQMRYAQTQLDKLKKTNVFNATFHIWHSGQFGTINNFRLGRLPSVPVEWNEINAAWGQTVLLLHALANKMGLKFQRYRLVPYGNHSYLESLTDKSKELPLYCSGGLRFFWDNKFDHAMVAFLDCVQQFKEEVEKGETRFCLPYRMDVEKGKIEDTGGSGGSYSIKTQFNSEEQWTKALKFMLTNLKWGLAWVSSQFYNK
UniProt Q00987: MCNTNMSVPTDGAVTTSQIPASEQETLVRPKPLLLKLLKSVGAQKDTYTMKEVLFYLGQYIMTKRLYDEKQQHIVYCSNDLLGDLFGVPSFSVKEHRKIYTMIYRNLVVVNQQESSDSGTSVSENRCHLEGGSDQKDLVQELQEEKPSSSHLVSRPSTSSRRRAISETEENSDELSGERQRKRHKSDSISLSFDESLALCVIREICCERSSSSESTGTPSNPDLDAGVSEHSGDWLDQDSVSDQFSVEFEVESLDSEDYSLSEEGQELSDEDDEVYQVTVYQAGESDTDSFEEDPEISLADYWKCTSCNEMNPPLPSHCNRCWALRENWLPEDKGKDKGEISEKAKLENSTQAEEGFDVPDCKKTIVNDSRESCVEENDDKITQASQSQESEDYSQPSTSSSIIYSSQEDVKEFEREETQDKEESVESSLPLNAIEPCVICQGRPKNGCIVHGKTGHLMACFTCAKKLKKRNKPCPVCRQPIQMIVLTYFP

Tests used:
[1] = target: His-USP5^C195A (purified recombinant) (human) (UniProt P45974); experiment: SEC; 1 mg purified His-USP5 or His-USP5^C195A in 200 μL treated with 1 mM H2O2 for 10 min on ice, loaded on Superdex 200 increase 10/300 GL at 4 °C; peaks of dimers and monomers collected; both purified
[2] = target: His-USP5^C195A (purified recombinant) (human) (UniProt P45974); experiment: SDS-PAGE without DTT (non-reducing) and western blot; purified recombinant His-USP5 or His-USP5^C195A in PBS treated with H2O2 for 10 min; SDS-PAGE with or without DTT (Fig. 5g, Supplementary Fig. S5e); western blot of H2O2-treated protein (Fig. 5k); both purified
[3] = target: USP5 (endogenous) (human (endogenous in A549 and H292)) (UniProt P45974); experiment: condition: only cells treated with 5 mM NAC for 24 h; SDS-PAGE without DTT (non-reducing) and western blot; total lysates of H292-KRAS^G12V cells treated with 5 mM NAC for 24 h; SDS-PAGE with or without DTT (100 mM) in the loading buffer
[4] = target: Beclin 1 (endogenous) (human (endogenous in A549)) (UniProt Q14457); experiment: co-IP; endogenous proteins in A549 (Fig. 2d, 4m) or A549/H292 lysates (Fig. 4p, with shBeclin 1 knock-down); IP lysis buffer 20 mM Tris-HCl, 125 mM NaCl, 5 mM MgCl2, 0.2 mM EDTA, 12% glycerol, 0.25% NP-40; primary antibodies 6 h at 4 °C, then protein A/G beads 2 h; western blot
[5] = target: USP5 (endogenous) (human (endogenous in A549 and H292)) (UniProt P45974); experiment: SDS-PAGE without DTT (non-reducing) and western blot; total lysates of H292-KRAS^G12V cells, or of A549 cells treated with H2O2 for 10 min; SDS-PAGE with or without DTT (100 mM) in the loading buffer; slower-migrating USP5 band without DTT read as disulfide-linked dimer
Flag-Beclin 1 (FL) = Flag-Beclin 1 (FL) (UniProt Q14457); experiment: co-IP; 293FT cells transfected with tagged constructs; anti-HA/Flag beads added to total lysate for 6 h; western blot; 20 μM MG132 before harvest in Fig. 4t
[6] = target: USP5^C195A-HA (stably expressed in H292-KRAS^G12V or A549) (human) (UniProt P45974); experiment: SDS-PAGE without DTT (non-reducing) and western blot; total lysates of H292-KRAS^G12V cells, or of A549 cells treated with H2O2 for 10 min; SDS-PAGE with or without DTT (100 mM) in the loading buffer; slower-migrating USP5 band without DTT read as disulfide-linked dimer
[7] = target: USP5-HA (stably expressed in H292-KRAS^G12V or A549) (human) (UniProt P45974); experiment: as above

Substance: His-USP5^C195A (purified recombinant) (from UniProt P45974 1-858) (enzyme)
- binding [1]: no binding (tested: 1 mg in 200 μL)
- binding [2]: no binding

Substance: MDM2-HA (FL) (from UniProt Q00987 1-491) (enzyme)
- binding (Flag-Beclin 1 (FL)): binds

Substance: USP5-HA (stably expressed in H292-KRAS^G12V or A549) (from UniProt P45974 1-858) (enzyme)
- binding [7]: binds

Now from value to substance:

- binding [3]: no binding
- binding [4]: binds
- binding [5]: binds
Substance: USP5 (endogenous) (from UniProt P45974 1-858) (enzyme)

- binding [6]: no binding
Substance: USP5^C195A-HA (stably expressed in H292-KRAS^G12V or A549) (from UniProt P45974 1-858) (enzyme)

- binding (Flag-Beclin 1 (FL)): binds
Substance: USP5-HA (293FT) (from UniProt P45974 1-858) (enzyme)

- binding [4]: binds
Substance: MDM2 (endogenous) (from UniProt Q00987 1-491) (enzyme)
